Reference: PMC4336329 (PLoS ONE, 2015)
In all, about 310,000 compounds went through this assay and about 2,200 (0.71%) showed an effect of 50% or more. The effect is printed as a negative number. The list shows a part of the results.

Molecular target: human ether-à-go-go-related gene (hERG) potassium channel (human, UniProt Q12809)
Experiment: primary screen, population patch clamp on CHO cells stably expressing hERG

human ether-à-go-go-related gene (hERG) potassium channel, sequence (Q12809 whole entry, looked up): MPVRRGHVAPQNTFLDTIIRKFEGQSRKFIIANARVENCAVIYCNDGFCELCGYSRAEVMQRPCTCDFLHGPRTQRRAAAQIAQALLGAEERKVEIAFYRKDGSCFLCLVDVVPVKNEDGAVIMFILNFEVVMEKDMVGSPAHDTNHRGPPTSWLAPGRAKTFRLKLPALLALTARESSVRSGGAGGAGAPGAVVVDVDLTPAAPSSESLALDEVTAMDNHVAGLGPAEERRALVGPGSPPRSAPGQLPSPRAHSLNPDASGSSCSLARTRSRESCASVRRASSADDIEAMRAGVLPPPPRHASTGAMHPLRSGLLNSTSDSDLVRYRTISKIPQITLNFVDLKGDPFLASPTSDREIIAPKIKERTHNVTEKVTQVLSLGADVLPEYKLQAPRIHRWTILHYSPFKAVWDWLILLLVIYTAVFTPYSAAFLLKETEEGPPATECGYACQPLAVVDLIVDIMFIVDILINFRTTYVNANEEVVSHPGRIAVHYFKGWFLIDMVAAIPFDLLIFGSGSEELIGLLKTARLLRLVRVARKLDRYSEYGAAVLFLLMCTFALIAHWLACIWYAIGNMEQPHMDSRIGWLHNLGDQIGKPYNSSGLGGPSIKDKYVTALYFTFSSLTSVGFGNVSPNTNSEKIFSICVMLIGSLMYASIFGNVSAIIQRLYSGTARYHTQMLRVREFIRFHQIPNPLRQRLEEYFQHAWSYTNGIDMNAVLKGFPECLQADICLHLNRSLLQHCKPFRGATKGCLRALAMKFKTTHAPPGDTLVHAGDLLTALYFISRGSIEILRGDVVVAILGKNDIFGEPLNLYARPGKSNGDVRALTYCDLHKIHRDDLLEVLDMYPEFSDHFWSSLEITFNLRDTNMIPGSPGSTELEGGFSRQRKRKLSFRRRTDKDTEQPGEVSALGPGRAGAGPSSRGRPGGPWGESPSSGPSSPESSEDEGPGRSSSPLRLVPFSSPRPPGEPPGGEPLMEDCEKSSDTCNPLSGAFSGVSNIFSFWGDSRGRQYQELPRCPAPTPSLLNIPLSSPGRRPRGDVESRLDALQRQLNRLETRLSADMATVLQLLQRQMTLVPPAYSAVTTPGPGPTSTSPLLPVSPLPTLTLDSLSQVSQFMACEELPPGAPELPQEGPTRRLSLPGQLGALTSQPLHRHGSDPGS

SMILES	hERG current change (%, negative = inhibition) at 1uM
CCn1c(SCc2nc3cc(OC)c(OC)cc3c(=O)[nH]2)nc2ccccc21	9.52%
O=S(=O)(NCCSc1nnnn1-c1ccccc1)c1cccs1	11.5%
COc1nc(OC)nc(N2CCC(C(=O)Nc3cccc4c3CCCC4)CC2)n1	5.93%
CC1CCc2c(sc(NC(=O)c3ccc(-c4ccccc4[N+](=O)[O-])o3)c2C#N)C1 (stereo not drawn)	17.2%
Cc1ccccc1OCC(=O)Nc1ccc(C)c(S(=O)(=O)N2CCCCCC2)c1	7.47%
CCn1c(SCC(=O)Nc2cccc(NC(C)=O)c2)nc2c([nH]c3ccccc32)c1=O	8.06%
CN1CCN(c2ccc(NC(=O)c3ccc4c(c3)[nH]c(=O)n4Cc3ccc(F)cc3)cc2)CC1	4.34%
Cc1ccsc1C(=O)N1CCN(c2ncccn2)CC1	9.08%
Cc1ccc(CN2CCN(Cc3cn(C)nc3C)CC2CCO)o1 (stereo not drawn)	15.5%
CN(C(=O)c1cnccn1)c1c(N)n(Cc2ccccc2)c(=O)[nH]c1=O	8.11%
CCOC(=O)C1=C(CSc2nc(C)ccc2C#N)OC(N)=C(C#N)C1c1cccc(OC)c1OC (stereo not drawn)	9.38%
CCCCCNC(=O)Cc1ccc(OC)cc1	6.88%
CNC(=O)COC(=O)c1cccnc1SC	7.05%
CO/N=C(\C)C(Cc1ccc(Cl)nc1)Cc1ccc(Cl)nc1	2.23%
CCCC(=O)Nc1ccc(C=C(C(C)=O)C(C)=O)cc1	4.62%
C=CCOc1cccc(C(=O)NC(c2ccccc2)C(C)C)c1 (stereo not drawn)	3.19%
CCCOc1ccc(-c2c(C(=O)N/N=C/c3ccc(C)cc3)nnn2-c2nonc2N)cc1	9.46%
Nc1nc(SCC(=O)NCc2ccc3c(c2)OCO3)n[nH]1	9.8%
Cc1ccc(S(=O)(=O)N2CCC(=O)N(CCO)CC2)cc1	10.1%
O=[N+]([O-])c1cc(S(=O)(=O)N2CCCC2)ccc1N/N=C1/CCCc2ccccc21	13.3%
CC1=NN(c2ccccc2)C(=O)/C1=C/c1cccc(C)c1	0.505%
Cc1cc(C)n2nc(C(=O)OCC(=O)NCc3ccccc3)nc2n1	28.4%
Cc1ccc(CN2CCSc3ccc(C(=O)NCc4ccco4)cc32)cc1	1.69%

SMILES	hERG current change (%, negative = inhibition) at 1uM
COc1ccccc1NS(=O)(=O)c1cccc(C(=O)N/N=C/c2c(CO)cnc(C)c2O)c1	12.2%
COc1ccc(Nc2ccccc2)c(C)c1	7.05%
C=CCNC(=O)COC(=O)COc1ccc(Cl)cc1C	0.409%
O=C(CSc1nc2cc3c(cc2c(=O)n1CCC1=CCCCC1)OCO3)NCc1ccco1	15.4%
O=C(CCCOc1ccccc1)N1CCN(S(=O)(=O)c2cccs2)CC1	3.59%
COc1ccccc1C(OC(=O)c1ccco1)C(=O)NCc1ccc(F)cc1 (stereo not drawn)	9.13%
C/C(CC(=O)Nc1cccc(Cl)c1C)=N\NC(=O)C(=O)NCC(C)C	-0.612%
COc1ccc(CCc2nc(C)ccc2O)cc1.Cl	11.4%
c1ccc2c(c1)nc(NCc1ccc3c(c1)OCO3)n2CCN1CCOCC1	-40.7%
O=C(NCc1cccs1)C1CCC(CNS(=O)(=O)c2cccc3nsnc23)CC1 (stereo not drawn)	4.69%
O=C(CNC(=O)Cc1ccccc1)NCC(=O)OCc1ccc(C(=O)c2ccccc2)cc1	0.84%
CCN(CC)CCN1C(=O)c2oc3ccccc3c(=O)c2C1c1ccc(C)cc1 (stereo not drawn)	-6.49%
CN1CCN(S(=O)(=O)c2cccc(C(=O)NCCOc3ccccc3F)c2)CC1	-4.66%
COc1ccccc1CN1CC(C(=O)N2CCC(OC)CC2)CCC1=O (stereo not drawn)	13.7%
Cc1ccc(OC(C)C(=O)N2CCc3ccccc32)cc1 (stereo not drawn)	14.4%
CCc1cc(C(=O)N2CCCC(CNC(=O)c3ccc(-c4ccccc4)cc3)C2)no1 (stereo not drawn)	-15.5%
Cn1cc(P(=S)(N2CCOCC2)N2CCOCC2)cc1P(=S)(N1CCOCC1)N1CCOCC1	17.8%
CC(=O)Cc1cc2cc([N+](=O)[O-])ccc2oc1=O	10.9%
CNC(=S)N(CCc1c(C)[nH]c2ccc(Cl)cc12)Cc1cccs1	-7.85%
CCCSc1nnc(NC(=O)c2ccco2)s1	8.4%
CCN(c1cc(C)cc(C)c1)S(=O)(=O)c1nnc(NC(=O)C(C)C)s1	11.4%
CCOCc1nnc(NC(=O)c2ccc(NC(C)=O)cc2)s1	15.1%
